Data on seven compounds can be found in patent publication US10299477B2 (priority 2015, dated 2019).

Each structure is given as a SMILES string.

Format in all cases: in vivo
One experiment deals with Alternaia brassicicola. As to the kind of experiment: Test Example C: Alternaria sooty spot on cabbage. The note with it: for Test C (control value class): Alternaria sooty spot on cabbage, control value=100{1-(n/3)}; for Test C (control value class, Alternaria sooty spot on cabbage): in vivo. An excerpt: [Test Example C] Alternaria Sooty Spot on Cabbage
Seeds of a test plant (cabbage variety: Shikidori) were planted followed by cultivating until the cotyledons extended.

The test system of experiment [1] is Blumeria graminis f sp. hordei. Kind of experiment: Test Example D: Powdery mildew on barley. To be noted: for Test D (control value class): Powdery mildew on barley, control value=100{1-(n/3)}; for Test D (control value class, powdery mildew on barley): in vivo. An excerpt: [Test Example D] Powdery Mildew on Barley
After the sprayed dilutions were dried, conidia of Blumeria graminis f sp. hordei were inoculated to the plants by shaking off.

Another experiment concerns Botrytis cinerea. As to the kind of experiment: Test Example B: Gray mold on tomato. To be noted: for Test B (control value class): Gray mold on tomato, control value=100{1-(n/3)}; for Test B (control value class, gray mold on tomato): in vivo. An excerpt:
[Test Example B] Gray Mold on Tomato
Seeds of a test plant (tomato variety: Oogata Fukuju) were planted followed by cultivating until three to five first leaves (true leaves) appeared.

A further experiment relates to Puccinia recondita. Kind of experiment: Test Example E: Brown rust on wheat. To be noted: for Test E (control value class): Brown rust on wheat, control value=100{1-(n/3)}; for Test E (control value class, brown rust on wheat): in vivo. An excerpt:
[Test Example E] Brown Rust on Wheat

Another experiment has as its system Plasmopara viticola. As to the kind of experiment: Test Example G: Downy mildew on vine. To be noted: for Test G (control value class): Downy mildew on vine, 250 ppm spray, 2.5 ml/pot; for Test G (control value class) / Test G (control value class, downy mildew on vine): evaluated 7-10 days after inoculation; for Test G (control value class, downy mildew on vine): 250 ppm, sprayed 2.5 ml/pot before inoculation. An excerpt:
[Test Example G] Downy Mildew on Vine
Seeds of a test plant (grape variety: Neomuscat) were planted followed by cultivating until three to four first leaves appeared. […] After the sprayed dilutions were dried, a zoosporangia suspension (1-2×10^4 zoosporangia/ml) of Plasmopara viticola was inoculated to the plants by spraying.

[2] abbreviates: 250 ppm spray, preventive, control value class.

As for `Cn1c(-c2c(F)cc(F)cc2F)c(-c2cc(F)cc(F)c2)cc(Br)c1=O` [Compound 805], in the experiment with Alternaia brassicicola, the “Test C (control value class)” value is on record as “H (H shows more than 50% of control values)”. For the same compound, the “Test D (control value class)” value in experiment [1] is on record as “H (H shows more than 50% of control values)”. Besides, in the experiment on Botrytis cinerea, the “Test B (control value class)” value is “H (H shows more than 50% of control values)”. For the same compound, the “Test E (control value class)” value with Puccinia recondita was “H (H shows more than 50% of control values)”. In addition, the “Test G (control value class)” value in the experiment with Plasmopara viticola was “L (L shows 50% or less of control values)”.

For `COc1cc(F)c(-c2c(-c3cc(F)c(F)cc3F)cc(Cl)c(=O)n2C)c(F)c1` [Compound 655], the “Test C (control value class, Alternaria sooty spot on cabbage)” value in the experiment with Alternaia brassicicola is on record as “H (H shows more than 50% of control values)”. Besides, the “Test D (control value class, powdery mildew on barley)” value in experiment [1] is listed as “L (L shows 50% or less of control values)”. Also, the “Test B (control value class, gray mold on tomato)” value with Botrytis cinerea is “H (H shows more than 50% of control values)”. Moreover, the “Test E (control value class, brown rust on wheat)” value in the experiment with Puccinia recondita is “H (H shows more than 50% of control values)”. The “Test G (control value class, downy mildew on vine)” value in the experiment on Plasmopara viticola is “L (L shows 50% or less of control values)”.

On to `CCn1c(-c2c(F)cc(OC)cc2F)c(-c2cc(F)ccc2Cl)ccc1=O` [Compound 739], for which the “Test C (control value class, Alternaria sooty spot on cabbage)” value with Alternaia brassicicola is on record as “H (H shows more than 50% of control values)”. In experiment [1], the “Test D (control value class, powdery mildew on barley)” value is given as “H (H shows more than 50% of control values)”. The “Test B (control value class, gray mold on tomato)” value in the experiment on Botrytis cinerea is “H (H shows more than 50% of control values)”. Moreover, the “Test E (control value class, brown rust on wheat)” value in the experiment on Puccinia recondita is on record as “H (H shows more than 50% of control values)”. The “Test G (control value class, downy mildew on vine)” value with Plasmopara viticola was “H (H shows more than 50% of control values)”.

For `CCn1c(-c2c(F)cccc2F)c(-c2cccc(Cl)c2Cl)cc(Cl)c1=O` [Compound 350], in the experiment on Alternaia brassicicola (setting [2]), the “Test C control value (Alternaria sooty spot on cabbage)” value is reported as “H (H shows more than 50% of control values)”. The “Test D control value (powdery mildew on barley)” value in experiment [1] (setting [2]) is reported as “H (H shows more than 50% of control values)”. Besides, the “Test B control value (gray mold on tomato)” value in the experiment with Botrytis cinerea (setting [2]) was “H (H shows more than 50% of control values)”. For the same compound, the “Test E control value (brown rust on wheat)” value in the experiment with Puccinia recondita (setting [2]) is reported as “H (H shows more than 50% of control values)”. Also, in the experiment on Plasmopara viticola (250 ppm spray (2.5 ml/pot), preventive, 7-10 days after inoculation, control value class), the “Test G control value (downy mildew on vine)” value is reported as “L (L shows 50% or less of control values)”.

With `CCn1c(-c2c(F)cccc2F)c(-c2ccc(OC)cc2Cl)cc(C)c1=O` [Compound 741], the “Test C (control value class, Alternaria sooty spot on cabbage)” value in the experiment with Alternaia brassicicola is “H (H shows more than 50% of control values)”. Besides, the “Test D (control value class, powdery mildew on barley)” value in experiment [1] is recorded as “H (H shows more than 50% of control values)”. The “Test B (control value class, gray mold on tomato)” value with Botrytis cinerea is “H (H shows more than 50% of control values)”. The “Test E (control value class, brown rust on wheat)” value in the experiment with Puccinia recondita was “H (H shows more than 50% of control values)”. Moreover, the “Test G (control value class, downy mildew on vine)” value with Plasmopara viticola was “H (H shows more than 50% of control values)”.

Consider `CCn1c(-c2c(F)cccc2F)c(-c2cccc(F)c2Cl)cc(Br)c1=O` [Compound 745], for which the “Test C (control value class, Alternaria sooty spot on cabbage)” value with Alternaia brassicicola is given as “H (H shows more than 50% of control values)”. Moreover, the “Test D (control value class, powdery mildew on barley)” value in experiment [1] is “H (H shows more than 50% of control values)”. In addition, in the experiment on Botrytis cinerea, the “Test B (control value class, gray mold on tomato)” value is “H (H shows more than 50% of control values)”. Besides, the “Test E (control value class, brown rust on wheat)” value with Puccinia recondita is given as “H (H shows more than 50% of control values)”. Further, in the experiment with Plasmopara viticola, the “Test G (control value class, downy mildew on vine)” value is listed as “H (H shows more than 50% of control values)”.

In the case of `CCn1c(-c2c(F)cc(F)cc2F)c(-c2cc(O)ccc2Cl)cc(Cl)c1=O` [Compound 792], the “Test C (control value class)” value in the experiment with Alternaia brassicicola was “H (H shows more than 50% of control values)”. For the same compound, in experiment [1], the “Test D (control value class)” value is given as “L (L shows 50% or less of control values)”. In addition, the “Test B (control value class)” value in the experiment on Botrytis cinerea is “H (H shows more than 50% of control values)”. The “Test E (control value class)” value in the experiment on Puccinia recondita is “H (H shows more than 50% of control values)”. In addition, in the experiment on Plasmopara viticola, the “Test G (control value class)” value was “H (H shows more than 50% of control values)”.
